Test results published in the supplement of paper PMC4604168 (melanoma cell lines).
The other results are listed elsewhere or left out. Single values are uncertain, as repeats are few or missing.

tested on: UACC62; assay: cell count relative to DMSO control; melanoma cells; higher = more viable cells; conditions: library dose: low library concentration; 72 h
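Also: cell number obtained by counting DAPI-stained nuclei in high-throughput microscope images with image analysis software, screen run in 1,536-well plates.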

SMILES | cell count
Cn1cnc2c(F)c(Nc3ccc(Br)cc3Cl)c(C(=O)NOCCO)cc21 [selumetinib] + COc1cc2ncnc(Nc3ccc(Oc4ccccc4)cc3)c2cc1OC [SrcI1] (first compound 0.015 µM, partner dose 2 µM) | 77.5%
Cn1cnc2c(F)c(Nc3ccc(Br)cc3Cl)c(C(=O)NOCCO)cc21 [selumetinib] + NC(=O)Nc1cc(-c2cccc(F)c2)sc1C(=O)N[C@H]1CCCNC1 [AZD7762] (first compound 0.015 µM, partner dose 0.02 µM) | 75.3%
COc1cc([C@@H]2c3cc4c(cc3[C@@H](O[C@@H]3O[C@@H]5CO[C@@H](C)O[C@H]5[C@H](O)[C@H]3O)[C@H]3COC(=O)[C@H]23)OCO4)cc(OC)c1O [etoposide] + Cn1cncc1[C@@](N)(c1ccc(Cl)cc1)c1ccc2c(c1)c(-c1cccc(Cl)c1)cc(=O)n2C [tipifarnib] (first compound 0.02 µM, partner dose 0.01 µM) | 78.8%
CCN(CC)CCNC(=O)c1c(C)[nH]c(/C=C2\C(=O)Nc3ccc(F)cc32)c1C [sunitinib] + O=C(CCCCCCC(=O)Nc1ccccc1)NO [vorinostat] (first compound 0.4 µM, partner dose 0.08 µM) | 83.7%
COc1cc([C@@H]2c3cc4c(cc3[C@@H](O[C@@H]3O[C@@H]5CO[C@@H](C)O[C@H]5[C@H](O)[C@H]3O)[C@H]3COC(=O)[C@H]23)OCO4)cc(OC)c1O [etoposide] + Cc1cc([N+](=O)[O-])ccc1NS(=O)(=O)c1cc(Cl)ccc1Cl [FH535] (first compound 0.02 µM, partner dose 1 µM) | 82.8%
